# Reference: the supplement of paper PMC9446081
# Screen size: about 39,000 compounds; about 220 (0.56%) showed activity. This is one part of the list.
# Test system: Escherichia coli K-12 BW25113
# Assay: relative growth (OD600 normalised to plate interquartile mean) (fraction); higher = less growth inhibition, active = 0.2 or less
# Details: 50 µM; LB; incubation time: overnight (16-24 h)
# 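Also: static incubation at 37 °C against the wild-type strain, values averaged over two biological replicates.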
row,SMILES,relative growth
1,C[C@H]1CN([C@@H](C)CO)C(=O)c2cc(NC(=O)Cc3ccccc3)ccc2O[C@H]1CN(C)C(=O)Nc1cccc2ccccc12,inactive: 1.02
2,Cc1noc(C)c1S(=O)(=O)Nc1ccc2c(c1)C(=O)N([C@H](C)CO)C[C@H](C)[C@@H](CN(C)S(=O)(=O)c1ccccc1)O2,inactive: 0.968
3,C[C@@H]1CN([C@H](C)CO)C(=O)c2cc(NS(=O)(=O)c3ccc(F)cc3)ccc2O[C@@H](C)CCCCO[C@@H]1CN(C)C(=O)c1ccccc1,inactive: 1
4,Cc1nnnn1CC(=O)Nc1ccc(F)cc1,inactive: 0.999
5,COc1ccc(C#Cc2ccc([C@@H]3[C@@H](CO)N4CCCCN(S(=O)(=O)c5cn(C)cn5)C[C@@H]34)cc2)cc1,inactive: 1.01
6,C[C@@H]1CN([C@@H](C)CO)S(=O)(=O)c2ccc(/C=C/c3ccccc3)cc2O[C@@H]1CN(C)C(=O)Nc1cc(F)ccc1F,inactive: 1.02
7,Nc1nnc2n1CCS2,inactive: 0.986
8,COc1ccc(S(=O)(=O)N(C)C[C@H]2Oc3ccc(NC(=O)c4ccncc4)cc3C(=O)N([C@H](C)CO)C[C@@H]2C)cc1,inactive: 0.966
9,C[C@@H]1CN([C@H](C)CO)C(=O)Cc2cc(NC(=O)CCC(F)(F)F)ccc2O[C@@H]1CN(C)S(C)(=O)=O,inactive: 0.979
10,C[C@H]1CN([C@@H](C)CO)C(=O)c2ccccc2-c2ccccc2CO[C@H]1CN(C)C(=O)Nc1cccc(Cl)c1Cl,inactive: 0.998
11,CO[C@H]1CN(C)C(=O)c2cc(NC(=O)Nc3cccc(Cl)c3)ccc2OC[C@H](C)N(C(=O)Nc2c(C)noc2C)C[C@@H]1C,inactive: 0.967
12,CO[C@H](CN(C)C(=O)c1ccc2c(c1)OCO2)[C@@H](C)CN([C@H](C)CO)S(=O)(=O)c1ccc(C)cc1,inactive: 0.979
13,N[C@@H](CC(=O)O)C(=O)O,inactive: 1.02
14,C[C@@H]1CN([C@@H](C)CO)C(=O)c2cccc(NS(=O)(=O)c3cn(C)cn3)c2O[C@@H]1CN(C)CC1CCCCC1,inactive: 1.02
15,C[C@@H]1CCCCO[C@@H](CN(C)C(=O)Nc2ccc(C(F)(F)F)cc2)[C@H](C)CN([C@@H](C)CO)C(=O)c2cc(NS(=O)(=O)c3cn(C)cn3)ccc2O1,inactive: 0.821
16,C[C@@H]1CN([C@@H](C)CO)C(=O)c2cc(NS(=O)(=O)c3cn(C)cn3)ccc2O[C@@H](C)CCCCO[C@@H]1CN(C)S(=O)(=O)c1ccc(F)cc1,inactive: 0.996
17,C[C@@H]1CN([C@H](C)CO)S(=O)(=O)c2ccc(Br)cc2O[C@H]1CN(C)S(=O)(=O)c1ccc(F)cc1,inactive: 1.03
18,O=c1[nH]cc(S(=O)(=O)N2CCN(c3ccccc3F)CC2)c(=O)[nH]1,inactive: 0.972
19,CN1CCN(C(=O)C[C@@H]2CC[C@@H]3[C@H](COC[C@@H](O)CN3C(=O)C3CCOCC3)O2)CC1,inactive: 1.01
20,CO[C@@H]1CN(C)C(=O)c2cc(NC(=O)NC(C)C)ccc2OC[C@@H](C)N(Cc2ccc(-c3ccccn3)cc2)C[C@@H]1C,inactive: 1.01
21,NCC1CCSCC1,inactive: 0.988

row,SMILES,relative growth
1,C[C@H](O)C#Cc1ccc2c(c1)O[C@@H](CN(C)C(=O)Nc1ccccc1)[C@H](C)CN([C@H](C)CO)S2(=O)=O,inactive: 1.02
2,C[C@@H]1CN([C@H](C)CO)C(=O)c2cc(NC(=O)CCC(F)(F)F)ccc2O[C@@H]1CN(C)Cc1ccc(-c2ccccc2)cc1,inactive: 0.877
3,COc1ccccc1S(=O)(=O)N(C)C[C@@H]1OCc2cnnn2CCCC(=O)N([C@H](C)CO)C[C@H]1C,inactive: 0.971
4,NS(=O)(=O)c1ccc(Cl)cc1[N+](=O)[O-],inactive: 0.88
5,CSCC[C@@H](N)C(=O)O,inactive: 1.02
6,Cc1ncc([N+](=O)[O-])n1C,inactive: 1.09
7,C[C@@H]1CN([C@@H](C)CO)C(=O)c2cc(NC(=O)Nc3ccc4c(c3)OCO4)ccc2O[C@H]1CN(C)Cc1ccc(C(F)(F)F)cc1,inactive: 0.99
8,Nc1ncccc1-c1nc2ccc(-c3ccccc3)nc2n1-c1ccc(C2(N)CCC2)cc1,inactive: 0.97
9,C[C@@H]1CCCCO[C@H](CN(C)C(=O)Nc2cccc3ccccc23)[C@H](C)CN([C@H](C)CO)C(=O)c2cc(NC(=O)Cc3ccccc3)ccc2O1,inactive: 1.01
10,C[C@@H]1CN([C@@H](C)CO)S(=O)(=O)c2ccc(C#Cc3cccc(F)c3)cc2O[C@@H]1CN(C)S(=O)(=O)c1cn(C)cn1,inactive: 1.01
11,C[C@@H]1CN([C@@H](C)CO)C(=O)c2cc(NS(=O)(=O)c3cn(C)cn3)ccc2O[C@@H]1CN(C)S(=O)(=O)c1ccc(F)cc1,inactive: 1
12,C[C@@H]1CN([C@H](C)CO)S(=O)(=O)c2ccc(C#Cc3ccncc3)cc2O[C@H]1CN(C)C(=O)C1CCC1,inactive: 0.989
13,Cc1ccc(S(=O)(=O)Nc2cccc3c2O[C@H](CN(C)S(=O)(=O)c2cn(C)cn2)[C@@H](C)CN([C@@H](C)CO)C3=O)cc1,inactive: 0.985
14,C[C@H]1CN([C@@H](C)CO)C(=O)c2cc(NC(=O)CCN3CCOCC3)ccc2O[C@H]1CN(C)S(=O)(=O)c1ccc(F)cc1,inactive: 0.983
15,C[C@H](CO)N1C[C@H](C)[C@@H](CN(C)Cc2ccc(-c3ccccc3)cc2)Oc2c(NC(=O)c3nc4ccccc4s3)cccc2C1=O,inactive: 1.04
16,O=c1cc[nH]cc1,inactive: 1.01
17,C[C@@H]1CN([C@@H](C)CO)C(=O)Cc2cc(NC(=O)Nc3cccc4ccccc34)ccc2O[C@@H]1CN(C)C(=O)Nc1ccc(C(F)(F)F)cc1,inactive: 0.991
18,COc1ccc(NC(=O)Nc2ccc3c(c2)C(=O)N([C@H](C)CO)C[C@H](C)[C@H](CN(C)S(=O)(=O)c2ccc(OC)cc2)OCCCC[C@@H](C)O3)cc1,inactive: 1.01
19,Cc1noc(C)c1NC(=O)N(C)C[C@@H]1Oc2ccc(NS(C)(=O)=O)cc2C(=O)N([C@@H](C)CO)C[C@H]1C,inactive: 1
20,C[C@H](CO)N1C[C@H](C)[C@@H](CN(C)S(=O)(=O)c2cn(C)cn2)OCc2cn(nn2)CCCC1=O,inactive: 0.992
